Data reported in article PMC9679702, “BI 456906: Discovery and preclinical pharmacology of a novel GCGR/GLP-1R dual agonist with robust anti-obesity efficacy” (Molecular Metabolism, 2022).

System: cAMP response element (CRE)-luciferase
Conditions: CRE-Luc mice, ex vivo tissue, 10 mg/kg intraperitoneal, vs vehicle

With `CC(C)NCC(O)c1ccc(O)c(O)c1` (centres unmarked) [isoproterenol] the “increase of liver luciferase activity” value was roughly 10 fold and the “increase of pancreas luciferase activity” value was roughly 1000 fold.
